# Measured values published in the supplement of paper PMC7826260.
# The other results are listed elsewhere or left out. One pool of 16,384 single-stranded DNAs met each Rep nickase domain in vitro (1 h at 37 °C, 3 µM enzyme); the outer parts of the 90-letter strands are left off. Numbers give uncut DNA relative to the enzyme-free pool, as log2; uncut sequences lie near 0, cut ones below; no hit call is given. Shares of all reads are compared, so uncut sequences can rise above 0 when many others are cut.
# Experiments:
# Experiment in all cases: uncleaved DNA left, log2 of reads against the no-enzyme library (log2 ratio); higher = less cleavage (more negative = more Rep cleavage of the k-mer); sequences stand for … in CTCGTCCG…ACCGGAGA
# [1] = test system: T1, Rep nickase domain of Muscovy duck circovirus
# T1 sequence (residues 1-111 of Rep, tag left off): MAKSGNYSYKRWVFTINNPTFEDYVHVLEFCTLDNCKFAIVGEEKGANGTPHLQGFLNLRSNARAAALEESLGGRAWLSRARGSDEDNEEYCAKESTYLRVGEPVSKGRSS
# Protocol: (§1)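 A pool of 90-nt single-stranded DNAs with seven random bases just before the constant AC of the nick site (name = the seven bases) was cut by 3 µM recombinant His6-SUMO-tagged Rep nickase domain (300 nM DNA, 50 mM HEPES pH 8.0, 50 mM NaCl, 1 mM MnCl2, 1 h, 37 °C, three replicates). Uncut DNA was amplified and sequenced.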
# [2] = test system: T2, Rep nickase domain of banana bunchy top virus
# T2 sequence (residues 1-94 of Rep, tag left off): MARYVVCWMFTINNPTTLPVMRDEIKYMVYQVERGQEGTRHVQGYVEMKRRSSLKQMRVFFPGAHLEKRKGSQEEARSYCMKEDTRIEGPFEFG
# Protocol: as §1
# [3] = test system: T3, Rep nickase domain of cabbage leaf curl virus
# T3 sequence (residues 1-116 of Rep, tag left off): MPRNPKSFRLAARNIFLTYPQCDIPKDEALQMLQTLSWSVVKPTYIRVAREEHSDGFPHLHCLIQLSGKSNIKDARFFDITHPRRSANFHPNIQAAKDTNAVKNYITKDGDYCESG
# Protocol: as §1
# [4] = test system: T4, Rep nickase domain of chickpea chlorotic dwarf virus
# T4 sequence (residues 1-124 of Rep, tag left off): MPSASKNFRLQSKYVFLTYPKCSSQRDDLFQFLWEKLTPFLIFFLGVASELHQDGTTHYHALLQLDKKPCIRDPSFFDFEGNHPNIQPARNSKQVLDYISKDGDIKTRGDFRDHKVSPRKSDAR
# Protocol: as §1
# [5] = test system: T5, Rep nickase domain of faba bean necrotic yellows virus
# T5 sequence (residues 1-98 of Rep, tag left off): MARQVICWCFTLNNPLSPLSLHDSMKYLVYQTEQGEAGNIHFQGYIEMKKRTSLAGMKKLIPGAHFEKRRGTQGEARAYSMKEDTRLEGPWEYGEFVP
# Protocol: as §1
# [6] = test system: T6, Rep nickase domain of maize striate mosaic virus
# T6 sequence (residues 1-117 of Rep, tag left off): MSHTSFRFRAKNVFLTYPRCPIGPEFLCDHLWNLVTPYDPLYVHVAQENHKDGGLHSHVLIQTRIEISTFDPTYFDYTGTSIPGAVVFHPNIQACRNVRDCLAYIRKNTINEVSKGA
# Protocol: as §1
# [7] = test system: T7, Rep nickase domain of porcine circovirus 2
# T7 sequence (residues 2-116 of Rep, tag left off): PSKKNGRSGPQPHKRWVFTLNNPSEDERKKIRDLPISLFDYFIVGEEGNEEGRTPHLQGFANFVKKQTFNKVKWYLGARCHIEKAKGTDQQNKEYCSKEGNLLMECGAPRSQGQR
# Protocol: as §1
# [8] = test system: T8, Rep nickase domain of tomato yellow leaf curl virus
# T8 sequence (residues 1-136 of Rep, tag left off): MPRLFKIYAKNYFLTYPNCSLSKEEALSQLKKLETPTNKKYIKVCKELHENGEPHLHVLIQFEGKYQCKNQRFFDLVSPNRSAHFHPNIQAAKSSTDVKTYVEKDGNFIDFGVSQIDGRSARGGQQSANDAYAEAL
# Protocol: as §1
# [9] = test system: T9, Rep nickase domain of wheat dwarf virus
# T9 sequence (residues 1-137 of Rep, tag left off): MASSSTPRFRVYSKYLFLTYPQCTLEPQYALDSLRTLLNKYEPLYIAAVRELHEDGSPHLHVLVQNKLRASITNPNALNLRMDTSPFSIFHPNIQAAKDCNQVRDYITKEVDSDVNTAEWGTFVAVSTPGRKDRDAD
# Protocol: as §1
sequence,measurement,setting,value
CACATGA,uncleaved DNA left (log2),[1],0.112
same,uncleaved DNA left (log2),[2],0.108
same,uncleaved DNA left (log2),[3],-0.266
same,uncleaved DNA left (log2),[4],-0.568
same,uncleaved DNA left (log2),[5],0.075
same,uncleaved DNA left (log2),[6],-1.03
same,uncleaved DNA left (log2),[7],0.183
same,uncleaved DNA left (log2),[8],0.0453
same,uncleaved DNA left (log2),[9],0.00943
AGGCCCA,uncleaved DNA left (log2),[1],0.052
same,uncleaved DNA left (log2),[2],0.0739
same,uncleaved DNA left (log2),[3],0.392
same,uncleaved DNA left (log2),[4],0.703
same,uncleaved DNA left (log2),[5],0.0301
same,uncleaved DNA left (log2),[6],1.91
same,uncleaved DNA left (log2),[7],0.0677
same,uncleaved DNA left (log2),[8],-0.0411
same,uncleaved DNA left (log2),[9],-0.0391
CTTGGTG,uncleaved DNA left (log2),[1],0.0494
same,uncleaved DNA left (log2),[2],-0.0597
same,uncleaved DNA left (log2),[3],-0.6
same,uncleaved DNA left (log2),[4],-0.501
same,uncleaved DNA left (log2),[5],0.0491
same,uncleaved DNA left (log2),[6],-0.942
same,uncleaved DNA left (log2),[7],0.0577
same,uncleaved DNA left (log2),[8],0.0548
same,uncleaved DNA left (log2),[9],-0.0578
AACGTAA,uncleaved DNA left (log2),[1],-0.0904
same,uncleaved DNA left (log2),[2],-0.0772
same,uncleaved DNA left (log2),[3],-0.214
same,uncleaved DNA left (log2),[4],-0.659
same,uncleaved DNA left (log2),[5],-0.168
same,uncleaved DNA left (log2),[6],-0.451
same,uncleaved DNA left (log2),[7],-0.00326
same,uncleaved DNA left (log2),[8],-0.138
same,uncleaved DNA left (log2),[9],-0.165
CTAACGT,uncleaved DNA left (log2),[1],0.126
same,uncleaved DNA left (log2),[2],0.115
same,uncleaved DNA left (log2),[3],-0.2
same,uncleaved DNA left (log2),[4],-0.607
same,uncleaved DNA left (log2),[5],0.1
same,uncleaved DNA left (log2),[6],-0.632
same,uncleaved DNA left (log2),[7],0.14
same,uncleaved DNA left (log2),[8],0.000225
same,uncleaved DNA left (log2),[9],0.12
ACAAGTA,uncleaved DNA left (log2),[1],0.0539
same,uncleaved DNA left (log2),[2],-0.00766
same,uncleaved DNA left (log2),[3],-0.246
same,uncleaved DNA left (log2),[4],-1.34
same,uncleaved DNA left (log2),[5],-0.00646
same,uncleaved DNA left (log2),[6],-0.891
same,uncleaved DNA left (log2),[7],-0.0909
same,uncleaved DNA left (log2),[8],-0.0647
same,uncleaved DNA left (log2),[9],0.0118
TAATTTC,uncleaved DNA left (log2),[1],-1.69
same,uncleaved DNA left (log2),[2],-0.159
same,uncleaved DNA left (log2),[3],-4.12
same,uncleaved DNA left (log2),[4],-3.59
same,uncleaved DNA left (log2),[5],-0.0709
same,uncleaved DNA left (log2),[6],-3.58
same,uncleaved DNA left (log2),[7],-2.1
same,uncleaved DNA left (log2),[8],-0.383
same,uncleaved DNA left (log2),[9],-4.06
AACCTCA,uncleaved DNA left (log2),[1],-0.0606
same,uncleaved DNA left (log2),[2],-0.112
same,uncleaved DNA left (log2),[3],0.0219
same,uncleaved DNA left (log2),[4],-1.79
same,uncleaved DNA left (log2),[5],-0.0968
same,uncleaved DNA left (log2),[6],-0.233
same,uncleaved DNA left (log2),[7],-0.339
same,uncleaved DNA left (log2),[8],-0.0486
same,uncleaved DNA left (log2),[9],0.0227
TGTTCGG,uncleaved DNA left (log2),[1],0.15
same,uncleaved DNA left (log2),[2],-0.0367
same,uncleaved DNA left (log2),[3],0.436
same,uncleaved DNA left (log2),[4],1.32
same,uncleaved DNA left (log2),[5],-0.0635
same,uncleaved DNA left (log2),[6],1.89
same,uncleaved DNA left (log2),[7],0.103
same,uncleaved DNA left (log2),[8],-0.0781
same,uncleaved DNA left (log2),[9],0.0483
TGAGGCC,uncleaved DNA left (log2),[1],0.0733
same,uncleaved DNA left (log2),[2],-0.052
same,uncleaved DNA left (log2),[3],0.259
same,uncleaved DNA left (log2),[4],0.536
same,uncleaved DNA left (log2),[5],-0.108
same,uncleaved DNA left (log2),[6],0.367
same,uncleaved DNA left (log2),[7],-0.0748
same,uncleaved DNA left (log2),[8],0.0353
same,uncleaved DNA left (log2),[9],0.0484
GCTCAGA,uncleaved DNA left (log2),[1],0.143
same,uncleaved DNA left (log2),[2],0.0879
same,uncleaved DNA left (log2),[3],0.164
same,uncleaved DNA left (log2),[4],0.572
same,uncleaved DNA left (log2),[5],0.149
same,uncleaved DNA left (log2),[6],-0.0359
same,uncleaved DNA left (log2),[7],0.143
same,uncleaved DNA left (log2),[8],0.136
same,uncleaved DNA left (log2),[9],0.058
TTAAACT,uncleaved DNA left (log2),[1],0.00203
same,uncleaved DNA left (log2),[2],-0.0248
same,uncleaved DNA left (log2),[3],-0.114
same,uncleaved DNA left (log2),[4],-2.67
same,uncleaved DNA left (log2),[5],-0.0669
same,uncleaved DNA left (log2),[6],-0.5
same,uncleaved DNA left (log2),[7],-0.399
same,uncleaved DNA left (log2),[8],0.0174
same,uncleaved DNA left (log2),[9],-0.128
GAAAGTA,uncleaved DNA left (log2),[1],-0.0169
same,uncleaved DNA left (log2),[2],0.035
same,uncleaved DNA left (log2),[3],0.13
same,uncleaved DNA left (log2),[4],-0.776
same,uncleaved DNA left (log2),[5],-0.0807
same,uncleaved DNA left (log2),[6],0.369
same,uncleaved DNA left (log2),[7],0.0352
same,uncleaved DNA left (log2),[8],0.00718
same,uncleaved DNA left (log2),[9],-0.0646
TTGTCAC,uncleaved DNA left (log2),[1],0.0196
same,uncleaved DNA left (log2),[2],-0.0674
same,uncleaved DNA left (log2),[3],0.0203
same,uncleaved DNA left (log2),[4],0.0537
same,uncleaved DNA left (log2),[5],-0.00394
same,uncleaved DNA left (log2),[6],-0.676
same,uncleaved DNA left (log2),[7],-0.149
same,uncleaved DNA left (log2),[8],0.106
same,uncleaved DNA left (log2),[9],0.026
GCGCCTC,uncleaved DNA left (log2),[1],-0.0382
same,uncleaved DNA left (log2),[2],-0.000259
same,uncleaved DNA left (log2),[3],0.071
same,uncleaved DNA left (log2),[4],0.358
same,uncleaved DNA left (log2),[5],-0.0621
same,uncleaved DNA left (log2),[6],0.849
same,uncleaved DNA left (log2),[7],-0.0789
same,uncleaved DNA left (log2),[8],-0.0188
same,uncleaved DNA left (log2),[9],0.00647
